From the supplement of paper PMC5998384

Tests used:
HeLa Kyoto [1] = assay: solubility in G1/S (NP-40 vs SDS abundance) (log2 ratio); higher = more soluble; conditions: cell cycle stage: G1/S
HeLa Kyoto [2] = assay: melting temperature (median over replicates), in situ; higher = more thermally stable
HeLa Kyoto [3] = assay: thermal stability score vs G1/S (z-score of summed log2 fold changes over temperatures); higher = more thermally stable than in G1/S
HeLa Kyoto [4] = assay: solubility change mitosis vs G1/S (difference of NP-40 vs SDS log2 ratios) (log2 ratio difference); higher = more soluble in mitosis
[5] = cell cycle stage: early G1 (4.5 h after nocodazole release)
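Wherever melting temperature (median over replicates), in situ is given: HeLa Kyoto cells synchronized by double thymidine or nocodazole block, proteins quantified by TMT10plex mass spectrometry, three independent biological replicates.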
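Wherever solubility change mitosis vs G1/S (difference of NP-40 vs SDS log2 ratios) is given: synchronized HeLa Kyoto cells (double thymidine block for G1/S, nocodazole release for mitosis), protein amounts in NP-40 versus SDS lysates quantified by mass spectrometry, three biological replicates.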
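Wherever solubility in G1/S (NP-40 vs SDS abundance) is given: HeLa Kyoto cells arrested at G1/S by double thymidine block, proteins quantified by TMT10plex mass spectrometry in mild NP-40 versus SDS extracts, three biological replicates.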
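Wherever thermal stability score vs G1/S (z-score of summed log2 fold changes over temperatures) is given: synchronized HeLa Kyoto cells, proteins quantified by TMT10plex mass spectrometry, three biological replicates, mitosis taken 0.5 h after nocodazole release, G1/S directly after double thymidine block.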

| Substance | solubility in G1/S (log2) (HeLa Kyoto [1]) | melting temperature (HeLa Kyoto [2]; cell cycle stage: G1/S) [°C] | melting temperature (HeLa Kyoto [2]; cell cycle stage: mitosis) [°C] | thermal stability score (HeLa Kyoto [3]; [5]) | thermal stability score (HeLa Kyoto [3]; cell cycle stage: mitosis) | solubility change mitosis (log2) (HeLa Kyoto [4]) |
| --- | --- | --- | --- | --- | --- | --- |
| TPI1 (sequence left out) | 0.483 | 57.2 | 56.4 | -1.62 | -2.8 | 0.0652 |
| AIFM1 (sequence left out) | -0.0455 | 57.2 | 56.6 | -0.277 | -2.42 | -0.0597 |
| MSH6 (sequence left out) | -0.194 | 47.7 | 49.2 | 3.69 | 7.53 | -0.117 |
| ITGB1 (sequence left out) | -0.0956 | 56.6 | 57.9 | -1.06 | -0.105 | -0.0191 |
| FGF2 (sequence left out) | -0.559 | – | – | -0.938 | -1.72 | 0.153 |
| PSMC4 (sequence left out) | 0.316 | 53.9 | 53.5 | 1.38 | 0.496 | -0.138 |
| STIM2 (sequence left out) | 0.14 | – | – | – | – | -0.12 |
| NDUFA10 (sequence left out) | 0.0364 | 50 | 50.2 | -0.476 | 0.657 | 0.00144 |
| STIM1 (sequence left out) | 0.408 | 52.3 | 52.2 | 0.613 | 0.513 | 0.159 |
| RPS6KA5 (sequence left out) | -0.0552 | – | – | – | – | -0.117 |
| NDUFB8 (sequence left out) | -0.0495 | – | – | – | – | 0.213 |
| NEDD8 (sequence left out) | -0.415 | 54.3 | – | -1.8 | -2.5 | 0.312 |
| SUMO2 (sequence left out) | -0.482 | 54.4 | – | – | – | 0.314 |
| MYH10 (sequence left out) | -0.539 | 52 | 51.7 | -1.09 | -1.94 | 0.00352 |
| MUC1 (sequence left out) | – | – | – | -1.25 | -0.51 | – |
| COX7C (sequence left out) | -1.31 | 57.4 | – | – | – | 0.382 |

| Substance | solubility in G1/S (log2) (HeLa Kyoto [1]) | melting temperature (HeLa Kyoto [2]; cell cycle stage: G1/S) [°C] | melting temperature (HeLa Kyoto [2]; cell cycle stage: mitosis) [°C] | thermal stability score (HeLa Kyoto [3]; [5]) | thermal stability score (HeLa Kyoto [3]; cell cycle stage: mitosis) | solubility change mitosis (log2) (HeLa Kyoto [4]) |
| --- | --- | --- | --- | --- | --- | --- |
| ANXA11 (sequence left out) | 0.51 | 49.7 | 49.9 | 6.32 | 3.34 | -0.0255 |
| ROR1 (sequence left out) | 0.0441 | – | – | – | – | -0.00946 |
| TFG (sequence left out) | 0.0963 | 56.1 | 56.3 | 0.358 | -1.66 | 0.0166 |
| RPS6KB1 (sequence left out) | -0.0413 | – | – | 0.051 | -0.087 | 0.0814 |
| SNRPA (sequence left out) | 0.194 | 55.8 | 55.2 | -2.56 | -4.69 | 0.241 |
| IGF2R (sequence left out) | -0.085 | 56.9 | 56.4 | -2.44 | -3.51 | -0.0908 |
| EXOC1 (sequence left out) | 0.0898 | 49.7 | 49.6 | 0.396 | 0.824 | -0.0858 |
| MTEESSDVPRELIESIKDVIGRKIKISVKKKVKLEVKGDKVENKVLVLTSCRAFLVTARIPTKLELTFSYLEIHGVVCSKSAQMIVETEKCSISMKMASPEDVSEVLAHIGTCLRKIFPGLSPVRIMKKVSMEPSERLASLQALWDSQTVAEQGPCGGFSQMYACVCDWLGFSYREEVQWDVDTIYLTQDTRELNLQDFSHLDHRDLIPIIAALEYNQWFTKLSSKDLKLSTDVCEQILRVVSRSNRLEELVLENAGLRTDFAQKLASALAHNPNSGLHTINLAGNPLEDRGVSSLSIQFAKLPKGLKHLNLSKTSLSPKGVNSLSQSLSANPLTASTLVHLDLSGNVLRGDDLSHMYNFLAQPNAIVHLDLSNTECSLDMVCGALLRGCLQYLAVLNLSRTVFSHRKGKEVPPSFKQFFSSSLALMHINLSGTKLSPEPLKALLLGLACNHNLKGVSLDLSNCELRSGGAQVLEGCIAEIHNITSLDISDNGLESDLSTLIVWLSKNRSIQHLALGKNFNNMKSKNLTPVLDNLVQMIQDEESPLQSLSLADSKLKTEVTIIINALGSNTSLTKVDISGNGMGDMGAKMLAKALQINTKLRTVIWDKNNITAQGFQDIAVAMEKNYTLRFMPIPMYDASQALKTNPEKTEDALQKIENYLLRNHETRKYLQEQAYRLQQGIVTSTTQQMIDRICVKVQDHLNSLRNCGGDAIQEDLKSAERLMRDAKNSKTLLPNLYHVGGASWAGASGLLSSPIQETLESMAGEVTRVVDEQLKALLESMVDAAENLCPNVMKKAHIRQDLIHASTEKISIPRTFVKNVLLEQSGIDILNKISEVKLTVASFLSDRIVDEILDALSHCHHKLADHFSRRGKTLPQQESLEIELAEEKPVKRSIITVEELTEIERLEDLDTCMMTPKSKRKSIHSRMLRPVSRAFEMEFDLDKALEEVPIHIEDPPFPSLRQ[skipping about 120 residues]KSERPPTILMTEEPSSPKGAVRSPPVDCPRKDTKAAEHNGNSERIEEIKTPDSFEESQGEEIGKVERSDSKSSPQAGRRYGVQVMGSGLLAEMKAKQEKRAACAQKKLGNDAVSQDSSSPALSGVERSDGGGAVPKLHPGLPENRFGLGTPEKNTKAEPKAEAGSRSRSSSSTPTSPKPLLQSPKPSLAARPVIPQKPRTASRPDDIPDSPSSPKVALLPPVLKKVPSDKERDGQSSPQPSPRTFSQEVSRRSWGQQAQEYQEQKQRSSSKDGHQGSKSNDSGEEAEKEFIFV [LRRC16A] | -0.0493 | 54.5 | 54.6 | -0.67 | 1.41 | -0.11 |
| NDUFS1 (sequence left out) | 0.0623 | 51.4 | 51.8 | -0.389 | -0.12 | -0.0606 |
| YAP1 (sequence left out) | 0.206 | 56.1 | 52.7 | – | – | 0.176 |
| CCNT1 (sequence left out) | -0.202 | 49.4 | 50.7 | -0.151 | 0.079 | 0.0923 |
| EEF1G (sequence left out) | 0.0423 | 50.7 | 50.2 | -1.32 | 1.53 | -0.104 |
| DSC2 (sequence left out) | -0.135 | 54 | 53.3 | 1.57 | 1.77 | -0.18 |
| ENO1 (sequence left out) | 0.304 | 56.7 | 56.4 | -1.37 | -2.11 | -0.0594 |
| HSP90B1 (sequence left out) | -0.00846 | 54.1 | 55.4 | 3.97 | 4.85 | -0.0824 |
| PCF11 (sequence left out) | -0.00629 | 49.2 | 48.8 | – | – | 0.0692 |
